Assay results: the supplement of paper PMC12067093, “Discovery and optimisation of a covalent ligand for TRIM25 and its application to targeted protein ubiquitination” (Chemical Science, 2025)
Targets with the largest changes are over-represented here; the source holds about 21,000 in all.

Compound: CC1Cc2ccccc2N1C(=O)C1CCCN(C1)C(=O)CCl (mixture of isomers) [TRIM25 ligand 11 (diastereomer mixture)]
Experiment: probe-labelled cysteine peptide fold change vs DMSO (competition) (log2 fold change); higher = less target engagement (more negative = stronger competition)
Conditions: THP-1, incubation time: 4 h
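Note: competitive chemoproteomic profiling in live THP-1 cells with an iodoacetamide desthiobiotin (IA-DTB) probe, comparing probe-labelled peptide intensities in compound-treated cells against DMSO-treated controls.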

Sequence of UniProt Q15022 (Q15022 whole entry, looked up): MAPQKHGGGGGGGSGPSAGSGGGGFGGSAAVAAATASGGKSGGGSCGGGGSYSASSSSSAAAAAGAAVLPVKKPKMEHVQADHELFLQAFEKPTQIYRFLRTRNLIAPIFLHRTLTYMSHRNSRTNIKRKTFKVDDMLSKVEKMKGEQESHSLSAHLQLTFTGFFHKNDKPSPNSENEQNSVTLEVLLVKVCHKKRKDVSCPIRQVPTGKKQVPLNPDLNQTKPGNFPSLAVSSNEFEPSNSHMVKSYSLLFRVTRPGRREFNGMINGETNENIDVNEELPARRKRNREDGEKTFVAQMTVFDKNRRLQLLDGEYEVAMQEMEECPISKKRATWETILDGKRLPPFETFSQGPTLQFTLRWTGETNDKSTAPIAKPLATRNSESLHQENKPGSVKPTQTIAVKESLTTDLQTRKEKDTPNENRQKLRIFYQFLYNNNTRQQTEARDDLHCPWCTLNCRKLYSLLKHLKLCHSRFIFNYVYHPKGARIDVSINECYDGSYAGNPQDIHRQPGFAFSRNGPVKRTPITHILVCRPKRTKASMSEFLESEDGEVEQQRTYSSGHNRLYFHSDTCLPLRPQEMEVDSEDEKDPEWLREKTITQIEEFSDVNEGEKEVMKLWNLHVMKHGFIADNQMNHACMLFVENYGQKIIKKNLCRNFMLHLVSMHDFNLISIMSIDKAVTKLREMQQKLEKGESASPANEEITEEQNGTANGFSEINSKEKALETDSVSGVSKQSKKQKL
Sequence of UniProt O95425 (O95425 whole entry, looked up): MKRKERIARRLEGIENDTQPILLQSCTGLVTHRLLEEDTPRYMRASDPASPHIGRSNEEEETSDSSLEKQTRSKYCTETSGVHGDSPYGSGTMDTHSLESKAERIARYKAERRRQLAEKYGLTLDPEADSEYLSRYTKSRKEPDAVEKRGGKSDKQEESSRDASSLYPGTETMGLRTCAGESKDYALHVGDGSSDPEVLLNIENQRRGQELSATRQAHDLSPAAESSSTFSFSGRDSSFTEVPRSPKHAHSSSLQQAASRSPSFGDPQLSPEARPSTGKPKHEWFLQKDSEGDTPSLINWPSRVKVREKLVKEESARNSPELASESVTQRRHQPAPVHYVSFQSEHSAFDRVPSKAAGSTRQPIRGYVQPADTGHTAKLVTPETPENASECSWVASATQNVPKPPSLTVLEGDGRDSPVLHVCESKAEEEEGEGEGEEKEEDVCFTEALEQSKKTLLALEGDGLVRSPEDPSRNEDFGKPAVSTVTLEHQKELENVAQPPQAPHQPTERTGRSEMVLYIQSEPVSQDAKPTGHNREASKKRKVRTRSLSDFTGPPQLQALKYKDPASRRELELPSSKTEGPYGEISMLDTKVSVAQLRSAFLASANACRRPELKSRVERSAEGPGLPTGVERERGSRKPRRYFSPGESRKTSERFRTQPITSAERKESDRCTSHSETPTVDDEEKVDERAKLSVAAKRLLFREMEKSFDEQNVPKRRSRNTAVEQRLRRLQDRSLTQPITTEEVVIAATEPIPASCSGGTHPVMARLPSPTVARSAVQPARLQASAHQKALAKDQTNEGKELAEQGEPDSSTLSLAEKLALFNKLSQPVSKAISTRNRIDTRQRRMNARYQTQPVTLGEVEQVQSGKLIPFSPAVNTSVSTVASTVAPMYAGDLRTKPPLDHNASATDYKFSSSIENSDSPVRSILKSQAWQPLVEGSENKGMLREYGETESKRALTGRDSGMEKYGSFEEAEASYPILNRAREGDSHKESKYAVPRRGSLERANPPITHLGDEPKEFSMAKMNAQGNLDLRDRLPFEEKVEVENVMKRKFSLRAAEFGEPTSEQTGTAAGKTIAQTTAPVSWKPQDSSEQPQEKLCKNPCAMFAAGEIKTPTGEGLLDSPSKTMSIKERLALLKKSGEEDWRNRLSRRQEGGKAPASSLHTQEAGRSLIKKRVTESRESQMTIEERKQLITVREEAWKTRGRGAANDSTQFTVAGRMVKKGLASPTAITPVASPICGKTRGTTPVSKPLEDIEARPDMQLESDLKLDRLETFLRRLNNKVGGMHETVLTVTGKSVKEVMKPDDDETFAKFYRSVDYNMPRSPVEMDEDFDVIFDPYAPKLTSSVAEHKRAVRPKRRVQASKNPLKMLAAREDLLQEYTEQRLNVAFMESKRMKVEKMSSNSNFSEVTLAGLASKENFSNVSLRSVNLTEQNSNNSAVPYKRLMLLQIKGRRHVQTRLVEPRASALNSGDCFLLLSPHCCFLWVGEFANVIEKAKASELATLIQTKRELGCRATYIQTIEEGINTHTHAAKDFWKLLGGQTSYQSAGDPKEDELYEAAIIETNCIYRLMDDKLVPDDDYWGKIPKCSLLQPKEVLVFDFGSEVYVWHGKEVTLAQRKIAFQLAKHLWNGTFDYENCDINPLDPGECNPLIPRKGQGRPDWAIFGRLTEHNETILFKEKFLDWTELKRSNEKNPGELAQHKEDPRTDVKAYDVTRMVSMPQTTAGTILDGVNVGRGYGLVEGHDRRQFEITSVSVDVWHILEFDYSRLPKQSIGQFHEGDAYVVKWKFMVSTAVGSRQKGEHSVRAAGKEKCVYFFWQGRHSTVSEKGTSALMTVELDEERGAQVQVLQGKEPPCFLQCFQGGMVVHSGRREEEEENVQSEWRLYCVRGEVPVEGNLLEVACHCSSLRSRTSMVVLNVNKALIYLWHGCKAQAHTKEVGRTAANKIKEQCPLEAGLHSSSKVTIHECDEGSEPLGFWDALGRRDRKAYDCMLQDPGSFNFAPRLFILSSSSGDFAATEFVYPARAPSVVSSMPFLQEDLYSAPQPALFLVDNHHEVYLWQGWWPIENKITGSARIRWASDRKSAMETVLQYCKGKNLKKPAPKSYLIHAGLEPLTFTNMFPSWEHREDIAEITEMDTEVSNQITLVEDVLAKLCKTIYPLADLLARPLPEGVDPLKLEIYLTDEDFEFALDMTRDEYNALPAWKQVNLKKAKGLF
Sequence of UniProt Q96DR4 (Q96DR4 whole entry): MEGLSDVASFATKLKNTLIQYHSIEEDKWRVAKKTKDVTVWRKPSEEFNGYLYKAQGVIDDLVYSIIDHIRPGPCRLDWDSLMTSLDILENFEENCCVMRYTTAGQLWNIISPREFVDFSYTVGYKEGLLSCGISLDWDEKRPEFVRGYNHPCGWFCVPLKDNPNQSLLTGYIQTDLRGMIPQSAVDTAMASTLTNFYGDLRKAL
Sequence of UniProt Q8NI27 (Q8NI27 whole entry, looked up): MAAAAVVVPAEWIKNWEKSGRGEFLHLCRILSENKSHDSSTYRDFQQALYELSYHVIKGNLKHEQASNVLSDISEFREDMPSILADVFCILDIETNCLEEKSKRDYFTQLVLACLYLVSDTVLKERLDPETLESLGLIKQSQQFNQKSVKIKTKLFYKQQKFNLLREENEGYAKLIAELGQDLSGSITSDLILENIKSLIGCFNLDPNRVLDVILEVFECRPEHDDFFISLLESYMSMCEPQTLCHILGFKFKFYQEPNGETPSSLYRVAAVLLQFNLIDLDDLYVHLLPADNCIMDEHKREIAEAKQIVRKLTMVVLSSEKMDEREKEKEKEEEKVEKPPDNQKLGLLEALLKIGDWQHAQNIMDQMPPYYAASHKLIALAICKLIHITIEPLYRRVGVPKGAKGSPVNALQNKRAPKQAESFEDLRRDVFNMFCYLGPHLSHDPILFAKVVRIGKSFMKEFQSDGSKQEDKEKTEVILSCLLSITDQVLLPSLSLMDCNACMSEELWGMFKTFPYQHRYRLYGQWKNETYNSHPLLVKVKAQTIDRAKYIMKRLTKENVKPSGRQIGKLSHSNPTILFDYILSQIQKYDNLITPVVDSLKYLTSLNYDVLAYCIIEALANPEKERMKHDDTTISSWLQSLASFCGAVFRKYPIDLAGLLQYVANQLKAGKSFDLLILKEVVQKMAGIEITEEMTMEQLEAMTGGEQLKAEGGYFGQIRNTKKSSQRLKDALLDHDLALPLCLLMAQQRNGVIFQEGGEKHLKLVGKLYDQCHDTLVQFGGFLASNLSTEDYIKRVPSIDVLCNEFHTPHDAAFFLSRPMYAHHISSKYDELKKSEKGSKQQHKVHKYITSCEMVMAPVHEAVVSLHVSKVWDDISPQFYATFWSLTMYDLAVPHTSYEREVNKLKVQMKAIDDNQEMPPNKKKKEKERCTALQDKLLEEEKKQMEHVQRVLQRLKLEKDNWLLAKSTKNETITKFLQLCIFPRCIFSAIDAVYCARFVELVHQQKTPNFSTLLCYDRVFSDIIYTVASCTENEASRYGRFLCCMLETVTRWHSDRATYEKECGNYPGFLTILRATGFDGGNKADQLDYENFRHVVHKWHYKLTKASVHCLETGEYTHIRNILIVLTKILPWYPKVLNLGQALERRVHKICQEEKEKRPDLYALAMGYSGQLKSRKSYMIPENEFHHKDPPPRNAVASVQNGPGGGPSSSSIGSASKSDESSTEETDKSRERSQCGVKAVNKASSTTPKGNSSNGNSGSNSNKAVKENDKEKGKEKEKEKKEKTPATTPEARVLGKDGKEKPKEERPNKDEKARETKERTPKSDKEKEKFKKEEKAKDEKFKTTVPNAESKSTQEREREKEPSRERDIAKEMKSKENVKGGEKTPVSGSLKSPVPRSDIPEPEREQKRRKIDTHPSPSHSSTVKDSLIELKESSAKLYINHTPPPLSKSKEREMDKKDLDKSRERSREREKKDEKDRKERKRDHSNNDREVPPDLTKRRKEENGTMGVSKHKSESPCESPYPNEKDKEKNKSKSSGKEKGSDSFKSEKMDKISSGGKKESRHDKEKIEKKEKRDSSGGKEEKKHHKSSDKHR
Sequence of UniProt P60174 (P60174 whole entry, looked up): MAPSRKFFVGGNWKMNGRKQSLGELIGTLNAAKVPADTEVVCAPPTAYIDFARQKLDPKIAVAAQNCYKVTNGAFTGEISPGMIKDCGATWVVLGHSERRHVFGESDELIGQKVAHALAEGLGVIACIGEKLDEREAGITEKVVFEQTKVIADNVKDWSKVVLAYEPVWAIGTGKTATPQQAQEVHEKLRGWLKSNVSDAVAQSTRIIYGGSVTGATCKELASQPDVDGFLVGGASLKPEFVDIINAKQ
Sequence of UniProt O60220 (O60220 whole entry): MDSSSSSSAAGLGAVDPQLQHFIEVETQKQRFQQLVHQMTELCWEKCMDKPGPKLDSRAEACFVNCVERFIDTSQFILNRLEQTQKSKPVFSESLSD

Target	probe-labelled cysteine peptide fold change (10 µM)	probe-labelled cysteine peptide fold change (50 µM)
SRRT_Q9BXP5_490_ECELSPGVNR (UniProt Q9BXP5)	-0.0201	0.0463
SUZ12_Q15022_494_IDVSINECYDGSYAGNPQDIHR (UniProt Q15022)	0.38	0.433
THOC3_Q96J01_65_VHSVAWSCDGR (UniProt Q96J01)	-0.00981	0.0117
TAF6_P49848_130_VPLDVCLK (UniProt P49848)	-0.0649	-0.172
TPI1_P60174_124_DCGATWVVLGHSERR (UniProt P60174)	-0.61	-0.325
TBC1D9B_Q66K14_76_ILHQTQDSQVYWTVACGSSR (UniProt Q66K14)	0.00641	-0.0542
TRIM13_O60858_129_HVFCSIEDAYAQER (UniProt O60858)	0.57	-0.0504
STARD4_Q96DR4_75_AQGVIDDLVYSIIDHIRPGPCR (UniProt Q96DR4)	0.224	0.346
TRAPPC11_Q7Z392_771_VPNISVHLLHEPPALTNEMYCLVVTVQSHEK (UniProt Q7Z392)	0.608	0.782
TRAPPC13_A5PLN9_327_LSLEAIPDTVNLEEPFHITCK (UniProt A5PLN9)	0.0597	-0.216
TRIM33_Q9UPN9_754_GSCGSSGR (UniProt Q9UPN9)	0.266	0.595
TOMM34_Q15785_74_DCTSALALVPFSIKPLLR (UniProt Q15785)	-0.141	-0.141
TBCD_Q9BTW9_681_QAVCVLIEK (UniProt Q9BTW9)	-0.0775	0.234
TATDN1_Q6P1N9_76_DALHLAQTNGMFFSTVGCHPTR (UniProt Q6P1N9)	0.109	0.0725
TRIM25_Q14258_168+174_EFFCPEHSECICHICLVEHK (UniProt Q14258)	0.191	0.102
SURF2_Q15527_116_YEECQK (UniProt Q15527)	-0.0453	-0.0823
SRPK1_Q96SB4_455_AEIPCEDEQEQEHNGPLDNK (UniProt Q96SB4)	-0.0458	-0.0274
TPX2_Q9ULW0_364_ICRDPQTPVLQTK (UniProt Q9ULW0)	-0.0278	-0.176
TNFAIP8L3_Q5GJ75_272_INHVFNHFADVEFLSTLYSLDGDCRPNLK (UniProt Q5GJ75)	0.0412	0.145

Target	probe-labelled cysteine peptide fold change (10 µM)	probe-labelled cysteine peptide fold change (50 µM)
THOC2_Q8NI27_436_DVFNMFCYLGPHLSHDPILFAK (UniProt Q8NI27)	0.0358	-0.118
TPP2_P29144_28_KETGAASFLCR (UniProt P29144)	-0.0524	-0.018
TRAPPC12_Q8WVT3_160_EVPGSEAARPEQEPPVAEPVPVCTIFSQR (UniProt Q8WVT3)	-0.246	-0.647
TNS3_Q68CZ2_512_DRETDILDDEMPHHDLHSVDSLGTLSSSEGPQSAHLGPFTCHK (UniProt Q68CZ2)	-0.357	-0.731
TRIR_Q9BQ61_165_AHQCGDDDK (UniProt Q9BQ61)	-0.469	-0.63
SVIL_O95425_1966_VTIHECDEGSEPLGFWDALGR (UniProt O95425)	-0.0958	-0.407
THBS1_P07996_413_CEGSSVQTR (UniProt P07996)	0.558	0.502
TOR4A_Q9NXH8_62_LLQPGGGPDVGTGAPRPGCSPR (UniProt Q9NXH8)	-0.105	-0.0981
TNRC18_O15417_726_ADEDCVDDR (UniProt O15417)	-0.0358	-0.102
TOR1AIP2_Q9H496_86_ACHPFLLGPPLVR (UniProt Q9H496)	0.0196	0.22
SUN1_O94901_657_CSETYETK (UniProt O94901)	-0.078	-0.0824
TCERG1_O14776_1062_RYLVLDCVPEER (UniProt O14776)	-0.0226	0.0368
TERF1_P54274_118_NSAEAIIHGLSSLTACQLR (UniProt P54274)	-0.0786	-0.0349
SURF6_O75683_189_KAEEATEAQEVVEATPEGACTEPR (UniProt O75683)	-0.0126	-0.199
TIMM8A_O60220_62_AEACFVNCVER (UniProt O60220)	-0.073	0.0883
TANK_Q92844_318_TKPSNLVNTCIR (UniProt Q92844)	-0.281	-0.415
TAGLN2_P37802_38_QYDADLEQILIQWITTQCRK (UniProt P37802)	-1.01	-0.918
TFB1M_Q8WVM0_160_WLENISCR (UniProt Q8WVM0)	0.114	0.159
TBC1D9B_Q66K14_876_ELFASLTPWACGSHTPLLAGR (UniProt Q66K14)	-0.00548	-0.0126
